Read-outs that look alike come from different tables or passages of the source. Part of at least one peptide drawing is inferred or uncertain, most often the ends. At least one structure is not confirmed: it was looked up by name or label, or the drawing left a doubt. Where a SMILES comes first, the peptide text is derived from it. Bridges are numbered along the chain shown (N, C = ends). [ ]: non-standard residue; d: D form. The star is where a group is joined. Hyp = O=C(O)[C@@H]1C[C@@H](O)CN1; hCys = N[C@@H](CCS)C(=O)O; Thz = O=C(O)[C@@H]1CSCN1; Ava = NCCCCC(=O)O; Bn = c1ccc(C*)cc1; Sar = CNCC(=O)O
Biological target: T1, alpha subunit of the human FcεRI receptor (Homo sapiens, UniProt P12319)
T1 construct: expressed in transfected cells; host or cells: Chinese hamster ovary (CHO FcεRI+) cells
T1 sequence (P12319 26-257): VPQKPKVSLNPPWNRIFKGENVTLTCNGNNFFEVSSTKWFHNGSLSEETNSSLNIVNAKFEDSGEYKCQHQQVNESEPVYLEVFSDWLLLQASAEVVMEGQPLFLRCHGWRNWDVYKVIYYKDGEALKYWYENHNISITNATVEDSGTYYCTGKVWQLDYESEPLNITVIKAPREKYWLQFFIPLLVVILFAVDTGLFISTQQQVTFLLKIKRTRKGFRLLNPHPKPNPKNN
Assay: cell-based 125I-IgE binding inhibition assay on CHO FcεRI+ cells
Experimental: . The following day the cells were rinsed three times with PBS and then once with F12/DMEM. Peptide stocks were reconstituted in 100 mM Hepes buffered water, pH 7.2, at a concentration of 5 mg/mL. Working concentrations of the peptide were diluted in assay buffer (see below). 75 ul, of a desired concentration of peptide was added to the top row of a separate 96 well microtiter plate and serially diluted 1:3 in 50 uL of the assay buffer (F12/DMEM, 1% BSA, 0.05% NaN3 and […] Hepes pH 7.2). Starting concentrations ranged from 50-500 uM. Next, 50 uL of the diluted peptide was transferred to the 96 microtiter well plate containing a monolayer of CHO FcεRI+ cells. After a 1 hour incubation at room temperature, 50 uL of ^125I-IgE (1.5 nM) was added to each well and incubated for an additional 45-60 minutes at 4° C. followed by 5 washes with 200 uL of assay buffer. Cells were solubilized with 200 uL of 1 N NaOH and transferred to a 96 microtiter tube for counting in a gamma counter to determine counts bound. The data were plotted using KaleidaGraph 3.0 and fitted using 4-parameter fits. IC50 values were determined for each peptide.
Six peptides based on selected clones from library #516 were synthesized and assayed for the ability to inhibit the binding of ^125I-IgE to a Chinese hamster ovary cell line expressing the alpha subunit of the IgE high affinity receptor, FcεRI. The peptides were synthesized as nine residue monomers and oxidized to allow the formation of a disulfide bridge resulting in a cyclic peptide. The size of each peptide was confirmed by mass spectrometry.

[1] = inhibition of labeled IgE-binding to CHO FcεRI+ cells, read-out: Mean IC50(uM) ± S.D.
[2] = IgE-inhibition activity of synthetic peptides, read-out: Inhibition activity: C+hd 50 +l (uM) ± s.d.

## CSCC[C@H](NC(=O)[C@H]1CSSC[C@H](NC(=O)[C@H](CCCNC(=N)N)NC(=O)[C@@H]2CCCN2C(=O)[C@H](CC(C)C)NC(=O)[C@H](CC(N)=O)NC(C)=O)C(=O)N[C@@H]([C@@H](C)O)C(=O)N[C@@H](CCC(=O)O)C(=O)NCC(=O)N2CCC[C@H]2C(=O)N[C@@H](Cc2c[nH]c3ccccc23)C(=O)NCC(=O)N[C@@H](Cc2c[nH]c3ccccc23)C(=O)N[C@@H](C(C)C)C(=O)N1)C(=O)O [IGE104, Ac-NLPRCTEGPWGWVcM] (Ac-NLPRCTEGPWGWV[dC]M-OH; disulfide 5-14; C-terminus assumed)
[1]
  IC50: 121 ± 9.9 µM

## CSCC[C@H](NC(=O)[C@@H]1CSSC[C@H](NC(=O)[C@H](CCCNC(=N)N)NC(=O)[C@@H]2CCCN2C(=O)[C@H](CC(C)C)NC(=O)[C@H](CC(N)=O)NC(C)=O)C(=O)N[C@@H]([C@@H](C)O)C(=O)N[C@@H](CCC(=O)O)C(=O)NCC(=O)N(C)CC(=O)N[C@@H](Cc2c[nH]c3ccccc23)C(=O)NCC(=O)N[C@@H](Cc2c[nH]c3ccccc23)C(=O)N[C@@H](C(C)C)C(=O)N1)C(=O)O [IGE097, Ac-NLPRCTEG(N-Me-G)WGWVCM] (Ac-NLPRCTEG[Sar]WGWVCM-OH; disulfide 5-14; C-terminus assumed)
[1]
  IC50: 84 µM

## CC(C)C[C@@H]1NC(=O)[C@H](CCC(=O)O)NC(=O)[C@H](Cc2ccc(O)cc2)NC(=O)[C@@H]2CSSC[C@H](NC(=O)[C@H](CC(C)C)NC(=O)[C@H](CCC(=O)O)NC(=O)CCCCNC1=O)C(=O)N1CCC[C@H]1C(=O)N[C@@H](CC(=O)O)C(=O)N[C@@H](C(C)C)C(=O)N[C@H](C(=O)N[C@@H](Cc1ccc(O)cc1)C(=O)N[C@H](C(N)=O)C(C)C)CSSC[C@H](NC(=O)[C@H](CCC(N)=O)NC(=O)[C@@H](N)C(C)C)C(=O)N1CCC[C@H]1C(=O)N[C@@H](Cc1c[nH]cn1)C(=O)N[C@@H](Cc1ccccc1)C(=O)N2 [IGE186, VQCPHFCYELavaELCPDVCYV-nh2] (H-VQCPHFCYEL[Ava]ELCPDVCYV-NH2; disulfide 3-18, 7-14 (inferred); N-terminus assumed)
[2]
  IC50: 0.18 ± 0.0064 µM

## CSCC[C@H](NC(=O)[C@@H]1CSSC[C@H](NC(=O)[C@H](CCCNC(=N)N)NC(=O)[C@@H]2CCCN2C(=O)[C@H](CC(C)C)NC(=O)[C@H](CC(N)=O)NC(C)=O)C(=O)N[C@@H]([C@@H](C)O)C(=O)N[C@@H](CCC(=O)O)C(=O)NCC(=O)N2C[C@H](OCc3ccccc3)C[C@H]2C(=O)N[C@@H](Cc2c[nH]c3ccccc23)C(=O)NCC(=O)N[C@@H](Cc2c[nH]c3ccccc23)C(=O)N[C@@H](C(C)C)C(=O)N1)C(=O)O [IGE102, Ac-NLPRCTEG(hyP-OBn)WGWVCM] (Ac-NLPRCTEG[Hyp](Bn)WGWVCM-OH; disulfide 5-14; C-terminus assumed)
[1]
  IC50: > 500 µM

## CC[C@H](C)[C@H](NC(=O)[C@@H](N)CCC(=O)O)C(=O)N[C@@H](CCC(N)=O)C(=O)N[C@@H](CCC(=O)O)C(=O)N[C@H]1CSSC[C@@H](C(=O)N[C@H](C(=O)NCC(=O)N[C@@H](CO)C(=O)NCC(=O)O)C(C)C)NC(=O)[C@H](Cc2ccccc2)NC(=O)[C@H](Cc2c[nH]c3ccccc23)NC(=O)CNC(=O)[C@H](Cc2c[nH]c3ccccc23)NC(=O)[C@@H]2CCCN2C(=O)CNC(=O)[C@H](CCC(=O)O)NC(=O)[C@H]([C@@H](C)O)NC1=O [EIQECTEGPWGWFCVGSG] (H-EIQECTEGPWGWFCVGSG-OH; disulfide 5-14)
  fold improvement over the MGTLCLEGPEGWFCIESA peptide: > 4 fold

## CC(C)C[C@@H]1NC(=O)[C@H](CCC(=O)O)NC(=O)[C@H](C)NC(=O)CNC(=O)CNC(=O)[C@H](Cc2ccccc2)NC(=O)[C@H](Cc2ccc(O)cc2)NC(=O)[C@@H]2CSSC[C@H](NC1=O)C(=O)N1CCC[C@H]1C(=O)N[C@@H](CC(=O)O)C(=O)N[C@@H](C(C)C)C(=O)N[C@H](C(=O)N[C@@H](Cc1ccc(O)cc1)C(=O)N[C@H](C(N)=O)C(C)C)CCSSC[C@H](NC(=O)[C@H](CCC(N)=O)NC(=O)[C@@H](N)C(C)C)C(=O)N1CCC[C@H]1C(=O)N[C@@H](Cc1c[nH]cn1)C(=O)N[C@@H](Cc1ccccc1)C(=O)N2 [IGE165, VQCPHFCYFGGAELCPDV(hC)YV-nh2] (H-VQCPHFCYFGGAELCPDV[hCys]YV-NH2; disulfide 3-19, 7-15 (inferred); N-terminus assumed)
Comparator (parent/control peptide) as named in the sentence
  fold difference in activity relative to comparator peptide: significant loss in activity

## CSCC[C@H](NC(=O)[C@@H]1CSSC[C@H](NC(=O)[C@H](CCCNC(=N)N)NC(=O)[C@@H]2CCCN2C(=O)[C@H](CC(C)C)NC(=O)[C@H](CC(N)=O)NC(C)=O)C(=O)N[C@@H]([C@@H](C)O)C(=O)N[C@@H](CCC(=O)O)C(=O)NCC(=O)N2CCC[C@H]2C(=O)N[C@@H](C(C)C)C(=O)NCC(=O)N[C@@H](Cc2c[nH]c3ccccc23)C(=O)N[C@@H](C(C)C)C(=O)N1)C(=O)O [IGE106, Ac-NLPRCTEGPVGWVCM] (Ac-NLPRCTEGPVGWVCM-OH; disulfide 5-14; C-terminus assumed)
[1]
  IC50: 84 µM

## CSCC[C@H](NC(=O)[C@@H]1CSSC[C@H](NC(=O)[C@H](CCCNC(=N)N)NC(=O)[C@@H]2CCCN2C(=O)[C@H](CC(C)C)NC(=O)[C@H](CC(N)=O)NC(C)=O)C(=O)N[C@@H]([C@@H](C)O)C(=O)N[C@@H](CCC(=O)O)C(=O)NCC(=O)N2CCC[C@H]2C(=O)N[C@@H](Cc2c[nH]c3ccccc23)C(=O)N[C@H](C)C(=O)N[C@@H](Cc2c[nH]c3ccccc23)C(=O)N[C@@H](C(C)C)C(=O)N1)C(=O)O [IGE105, Ac-NLPRCTEGPWaWVCM] (Ac-NLPRCTEGPW[dA]WVCM-OH; disulfide 5-14; C-terminus assumed)
[1]
  IC50: 8.6 µM

## CSCC[C@H](NC(=O)[C@@H]1CSSC[C@H](NC(=O)[C@H](CCCNC(=N)N)NC(=O)[C@@H]2CCCN2C(=O)[C@H](CC(C)C)NC(=O)[C@@H](N)CC(N)=O)C(=O)N[C@@H]([C@@H](C)O)C(=O)N[C@@H](CCC(=O)O)C(=O)NCC(=O)N2CCC[C@@H]2C(=O)N[C@@H](Cc2c[nH]c3ccccc23)C(=O)NCC(=O)N[C@@H](Cc2c[nH]c3ccccc23)C(=O)N[C@@H](C(C)C)C(=O)N1)C(=O)O [IGE071, NLPRCTEGpWGWVCM] (H-NLPRCTEG[dP]WGWVCM-OH; disulfide 5-14; N-terminus and C-terminus assumed)
[1]
  IC50: > 500 µM

## CSCC[C@H](NC(=O)[C@@H]1CSSC[C@H](NC(=O)[C@H](CCCNC(=N)N)NC(=O)[C@@H]2CCCN2C(=O)[C@H](CC(C)C)NC(=O)[C@H](CC(N)=O)NC(C)=O)C(=O)N[C@@H]([C@@H](C)O)C(=O)N[C@@H](CCC(=O)O)C(=O)NCC(=O)N2CSC[C@H]2C(=O)N[C@@H](Cc2c[nH]c3ccccc23)C(=O)NCC(=O)N[C@@H](Cc2c[nH]c3ccccc23)C(=O)N[C@@H](C(C)C)C(=O)N1)C(=O)O [IGE115, AC-NLPRCTEG(tP)WGWVCM] (Ac-NLPRCTEG[Thz]WGWVCM-OH; disulfide 5-14; C-terminus assumed)
[1]
  IC50: 1.4 ± 0.3 µM

## CC(C)C[C@@H]1NC(=O)[C@H](CCC(=O)O)NC(=O)[C@H](Cc2ccc(O)cc2)NC(=O)[C@@H]2CSSC[C@H](NC(=O)[C@H](CC(C)C)NC(=O)[C@H](CCCNC(=N)N)NC(=O)[C@H](CCC(=O)O)NC(=O)[C@H](CC(=O)O)NC(=O)CNC(=O)[C@H](C)NC(=O)[C@H](CCC(=O)O)NC(=O)[C@H](Cc3ccc(O)cc3)NC(=O)[C@H](CC(=O)O)NC1=O)C(=O)N1CCC[C@H]1C(=O)N[C@@H](CC(=O)O)C(=O)N[C@@H](C(C)C)C(=O)N[C@H](C(=O)N[C@@H](Cc1ccc(O)cc1)C(=O)N[C@H](C(N)=O)C(C)C)CSSC[C@H](NC(=O)[C@H](CCC(N)=O)NC(=O)[C@@H](N)C(C)C)C(=O)N1CCC[C@H]1C(=O)N[C@@H](Cc1c[nH]cn1)C(=O)N[C@@H](Cc1ccccc1)C(=O)N2 [IGE189] (H-VQCPHFCYELDYEAGDERLCPDVCYV-NH2; disulfide 3-24, 7-20 (inferred); N-terminus assumed)
[2]
  IC50: 0.15 ± 0.054 µM
